Laboratory results from PubChem BioAssay AID686979 (National Center for Advancing Translational Sciences (NCATS), 2013).
The whole screen tested about 420,000 compounds, of which about 50,000 (12%) were called active. The inconclusive results got no clear call from the source; some entries with a clear call stand among them for comparison. Calls come from the whole dose curve; as a rule, active = well fitted inhibition curve with a large enough effect; inconclusive = small, poorly fitted or top-dose-only effect; inactive = flat fitted curve, though single readings scatter. No potency is given beside an inconclusive call; the fits are too rough.

Assay: qHTS for Inhibitors of human tyrosyl-DNA phosphodiesterase 1 (TDP1): qHTS in cells in presence of CPT; note: nearly all actives have a fitted effect of over 55% in size
Conditions: chicken DT40 Tdp1-/-;hTDP1 cells + 20 nM CPT, ATP luminescence, 48 h; series mostly up to 46.2 µM
How it was run: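 Chicken DT40 Tdp1-/- cells complemented with human TDP1, 400 cells/well, exposed to compounds plus 20 nM camptothecin for at least 48 h at 37 C; viability read as ATP content by CellTiter-Glo luminescence.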
Potency is the fitted concentration of half-maximal effect; tags give direction and shape of the fitted curve.

SMILES | Potency
CCOc1ccc(CNCc2c(C(=O)O)c(C)n(Cc3ccc(C)cc3)c2C)cc1 | inconclusive [inhibitor, single point]
CCCCN1C(=O)c2ccc(C(=O)Nc3ccc(C)c(S(=O)(=O)N(C)C)c3)cc2C1=O | inconclusive [inhibitor, single point]
CCCCN(C(=O)c1ccc2c(c1)OCO2)c1ccccc1 | inconclusive [inhibitor, partial curve, poor fit]
CCN(Cc1ccccc1)S(=O)(=O)c1cc(C(=O)c2c(N)n(C)c(=O)n(C)c2=O)ccc1OC | inconclusive [inhibitor, partial curve, poor fit]
CCOC(=O)C1=CCN(S(=O)(=O)c2ccc(C)cc2)C1c1cccc2ccccc12 (centres undefined) | inconclusive [inhibitor, single point]
CS(=O)(=O)c1ccc(Nc2nc(C(N)Cc3ccc(C(F)(F)F)cc3)cs2)cc1 (centres undefined) | active: 20.6 µM
COC(=O)c1ccc(Sc2ccc(Cl)cc2)c(N)c1 | inconclusive [inhibitor, single point]
COc1ccccc1C(=O)Nc1ccnn1C1CCN(CCC(C)c2ccc(C)o2)CC1 (centres undefined) | inconclusive [inhibitor, single point]
O=S(=O)(Nc1ccc(-c2ccc(N3CCCC3)nn2)cc1)c1ccc(C(F)(F)F)cc1 | inconclusive [inhibitor, single point]
COC(=O)CN(c1nc(C)c(Br)c(OC)n1)S(=O)(=O)c1ccc(C)cc1 | inactive
CN1CCc2c(sc(NC(=O)c3ccc([N+](=O)[O-])o3)c2C(N)=O)C1 | active: 1.64 µM
CCCCN=C1CC(C)(C)CC(=O)/C1=C(/O)CCCN1C(=O)c2ccccc2C1=O | inactive
Clc1ccc(CSc2nnc(CN3CCOCC3)n2-c2ccccc2)cc1Cl | inconclusive [inhibitor, single point]
CC(=O)Nc1cccc(NC(=O)c2ccc3c(c2)CCN3S(C)(=O)=O)c1 | inconclusive [inhibitor, single point]
CS(=O)(=O)c1ccc(Nc2nc(C(N)CCc3ccccc3)cs2)cc1 (centres undefined) | active: 23.1 µM
Cc1onc(-c2ccccc2)c1C(=O)N1CCN(C(=O)c2ccco2)CC1 | inactive
CCCc1nc2ccc(NC(C)=O)cc2c(=O)n1Cc1ccccc1Cl | inconclusive [inhibitor, single point]
COc1ccc(-n2c(Cc3cccn3C)nnc2SCC(=O)NCc2ccccc2Cl)cc1 | inconclusive [inhibitor, partial curve, poor fit]
Cc1c(OCC(=O)NCc2ccccn2)ccc2c3c(c(=O)oc12)CCCC3 | inconclusive [inhibitor, single point]
CN1CCN(c2cc(-c3ccccc3C(F)(F)F)ncn2)CC1 | inactive
Nc1nnc(SCC(=O)NCCNC(=O)CSc2nnc(N)s2)s1 | inactive
Cc1cccc(-c2nc(CCNC(=O)c3ccc(Br)o3)cs2)c1 | inconclusive [inhibitor, single point]
COc1ccccc1Cc1c(-c2ccc(Cl)cc2)nc2c3ccccc3ccn12 | active: 25.9 µM

SMILES | Potency
Cc1cc(C)cc(OC(=O)c2cc(-c3ccc(Cl)cc3)on2)c1 | inactive
CC1CN(c2nc3c(c(=O)n(C)c(=O)n3C)n2Cc2c(Cl)cccc2Cl)CC(C)O1 (centres undefined) | inconclusive [inhibitor, single point]
CCOC(=O)C1=C(C)N(C[C@@H]2CC[C@@H](Cc3ccc(-c4ccccc4)cc3)O2)C(=O)NC1c1ccc(C(F)(F)F)cc1 (some centres undefined) | inconclusive [inhibitor, single point]
COc1ccc(OCCCC(=O)OCC(=O)c2ccc3c(c2)NC(=O)CO3)cc1 | inactive
O=C(NCC1CCCCC1)c1cccc(-c2ccc(O)cc2)c1 | inconclusive [inhibitor, single point]
N#C/C(=C\c1ccc(O)c(O)c1)C(=O)N1CCc2ccccc21 | inconclusive [inhibitor, single point]
CC(C)c1ccc(-c2noc(SCC(=O)N3CCCCC3C)n2)cc1 (centres undefined) | inconclusive [inhibitor, single point]
Cc1cc(=O)n(Cc2ccc(F)cc2Cl)c2c1c(C)nn2C | inconclusive [inhibitor, single point]
O=C(O)c1cn(Cc2ccccc2Cl)c2ccc(S(=O)(=O)N3CCOCC3)cc2c1=O | inconclusive [inhibitor, single point]
CCCc1cc(-c2n[nH]c(=S)n2CC)c2ccccc2n1 | inconclusive [inhibitor, partial curve]
COC(=O)CCCCC1SCC2NC(=O)NC21O (centres undefined) | inactive
CCC(Oc1ccccc1)C(=O)Nc1ccccc1N1CCCC1 (centres undefined) | inconclusive [inhibitor, partial curve]
COc1ccccc1Oc1nc(-c2ccccc2)cc(C)c1S(C)(=O)=O | inconclusive [inhibitor, partial curve]
CCc1noc(C)c1C(=O)Nc1ccccc1N1CCOCC1 | inconclusive [inhibitor, partial curve]
COc1ccc(S(=O)(=O)Nc2ccc3c(c2)OCCO3)cc1Cl | active: 23.1 µM
CNc1ccc(/C=C/c2ccnc3ccccc23)cc1 | active: 11.2 µM
CC(=O)NC(CC(=O)OCc1ccc([N+](=O)[O-])cc1)c1ccccc1 (centres undefined) | inconclusive [inhibitor, single point]
Cc1nnc(NC(=O)C2CC(=O)N(c3ccc4c(c3)OCCO4)C2)s1 (centres undefined) | inactive
CC(=O)c1sc(NC(=O)c2c(-c3ccccc3)c(-c3ccccc3)nn(C)c2=O)nc1C | active: 0.411 µM
CC1(C)CCC(=O)N2CC[C@H]3C[C@H](OC(=O)Nc4ccc5c(c4)OCO5)C[C@@H]1[C@H]32 | inconclusive [inhibitor, partial curve]
CCN(CC)C(=O)Cn1c(=O)n(-c2ccc(C)c(C)c2)c(=O)c2c(C)c(C(=O)N(CC)CC)sc21 | inactive
OCC[n+]1ccc(/C=C/c2c[nH]c3ccccc23)cc1 | active: 6.51 µM
CC1Cc2ccccc2N1S(=O)(=O)c1cccc(C(=O)N2CCN(c3ncccn3)CC2)c1 (centres undefined) | inconclusive [inhibitor, single point]

SMILES | Potency
COc1ccccc1NC(=O)c1ccc(S(=O)(=O)N2CCC(C)CC2)cc1 | inactive
CCOC(=O)N1CCN(C(=O)C2CCCN(S(=O)(=O)c3ccc(C)cc3)C2)CC1 (centres undefined) | inconclusive [inhibitor, partial curve]
O=C(Nc1nnc(-c2ccccc2)s1)c1ccc(F)cc1 | inactive
N/C(Cc1ccc([N+](=O)[O-])cc1)=N\OC(=O)C(c1ccccc1)c1ccccc1 | inconclusive [inhibitor, single point]
O=C(Nc1ccncc1)c1cccc(F)c1 | inconclusive [inhibitor, single point]
C[C@H](CO)N1C[C@H](C)[C@H](CN(C)S(=O)(=O)c2cccc(C#N)c2)OCc2cnnn2CCCC1=O | inactive
COc1ccc(CCNc2ncnc3nc[nH]c23)cc1OC | active: 18.4 µM
COc1ccc(NS(=O)(=O)c2cc(C)ccc2C)cc1 | active: 20.6 µM
COC(=O)c1ccc(COc2cccc3c2CCN(Cc2cccc(C)c2)C3=O)o1 | inconclusive [inhibitor, single point]
CCOC(=O)[C@@H]1[C@H]2COc3ccccc3[C@@H]2N2C(=O)N(c3ccc(OC)cc3)C(=O)[C@@]12C | inactive
CCCCCN1C(C(=O)c2ccccc2)=C(NC(=O)c2ccc(C)cc2)c2ccccc2S1(=O)=O | active: 18.4 µM
O=C(Cc1ccc(Br)cc1)Nc1cccc(S(=O)(=O)N2CCCCC2)c1 | inconclusive [inhibitor, single point]
CCN(CC(=O)NCc1ccc(F)cc1)C(=O)CN1CCN(c2cc(Cl)ccc2C)CC1 | inconclusive [inhibitor, single point]
CCCOc1ccc(-c2cn3ccccc3n2)cc1 | inconclusive [inhibitor, partial curve]
CC1CCc2onc(C(=O)N3CCN(c4ccc(F)cc4)CC3)c2C1 (centres undefined) | inconclusive [inhibitor, single point]
O=c1nc2ccccc2c2n1CC(CN1CCN(c3ccccc3F)CC1)N2 (centres undefined) | inconclusive [inhibitor, partial curve, poor fit]
O=C(CC1SC(N2CCCCC2)=NC1=O)Nc1cccc(C(=O)NCc2ccc(F)cc2)c1 (centres undefined) | inactive
O=C1CCc2cc(S(=O)(=O)N3CCCC3C(=O)NC3CCCCCCC3)ccc2N1 (centres undefined) | inconclusive [inhibitor, single point]
CCCNC(=S)N1CCC(C(=O)c2ccc(F)cc2)CC1 | active: 14.6 µM
CSc1ccc(CCNC(=O)CCc2nnc3ccc(N4CCCC4)nn23)cc1 | inconclusive [inhibitor, single point]
COc1ccc(-c2cc(C(=O)N(C)Cc3ccc(OC)c(OC)c3OC)c3ccccc3n2)cc1OC | active: 16.4 µM
Cc1sc2nc(C3CC3)nc(SCC(=O)NCc3ccco3)c2c1C | inconclusive [inhibitor, single point]
COCCCNc1ccnc2c(Cl)cccc12 | inconclusive [inhibitor, single point]
